Assay [1] in a line: qHTS Assay for Lipid Storage Modulators (AID 1519). The following applies: Drosophila S3 cells, BODIPY lipid droplet/cell ratio, laser cytometry, cells loaded with oleic acid. In a few lines: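 Cells seeded at 5,000 per well were treated with compounds over a concentration series and loaded with oleic acid (400 uM, as added). Lipid droplet fluorescence (488 nm excitation, 500-530 nm channel) was read by laser-scanning cytometry and normalized to 20 uM Triacsin C.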

Assay [2] in a line: qHTS Assay for Modulators of Human Peripheral Myelin Protein 22 (PMP22) Expression/Activity (AID 1967). The settings on record: Cell-based PMP22 reporter, dual-color luciferase ratio. An outline of the steps: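 Quantitative HTS in a mouse Schwann cell line expressing dual click beetle luciferases: Pmp22 promoter (green) and control EF-alpha promoter (red). After 24h treatment, corrected green/red signal ratio gave %Activity relative to untreated cells.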

Assay [3] in a line: qHTS assay for small molecule antagonists of androgen receptor signaling (AID 588516). The settings on record: AR-UAS-bla HEK293, beta-lactamase ratio, antagonist mode, 16 h. In a few lines: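 Cells were plated and incubated 5 h, compounds added in titration, then R1881 (10 nM final) as agonist. After 16 h at 37 C, CCF4 substrate was loaded for 2 h at room temperature and fluorescence measured.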

A short description of assay [4]: qHTS assay for small molecule antagonists of peroxisome proliferator-activated receptor delta signaling (AID 588535).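 Also: cells co-treated with a PPAR-delta agonist as stimulator during compound exposure.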 The settings on record: HEK293T PPARd-UAS-bla, beta-lactamase FRET ratio, 18 h; 460 nm channel. An outline of the steps:
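HEK293T PPAR-delta-UAS-bla cells, 4000/well, 2% charcoal/dextran FBS; 5 h 37 C; cpd titration; 18 h 37 C; CCF4 2 h RT; FI 460/530 nm; Hill fit → IC50, efficacy.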

Assay [5] in a line: qHTS assay for small molecule antagonists of peroxisome proliferator-activated receptor gamma signaling (AID 588537). The following applies: HEK293 PPARg-UAS-bla, beta-lactamase ratio, antagonist mode; measured here: W460 blue channel. An outline of the steps: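 Antagonist mode, beta-lactamase reporter in HEK293; charcoal/dextran FBS 1%; 3000 cells/well, 37 C 6-6.5 h; cpd titration + rosiglitazone 50 nM final, 16 h 37 C; CCF4, 2 h RT; 460/530 nm; Hill fit → IC50, efficacy.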

Assay [6] in a line: qHTS assay for small molecule antagonists of vitamin D receptor signaling (AID 588541). The following applies: HEK293T VDR-UAS-bla, beta-lactamase ratio, antagonist mode; measured here: W460 blue channel (cell viability).
Assay [7] is described as follows: qHTS assay for small molecule agonists of retinoid X receptor alpha signaling (AID 588544). The following applies: HEK293T RXRa-UAS-bla, beta-lactamase reporter, 18 h; 530 nm emission.
The nature of assay [8]: S16 Schwann cell PMP22 intronic element beta-lactamase assay (AID 624044). Also: nearly all actives have a fitted effect of over 15% in size. The settings on record: S16 rat Schwann cells, PMP22 element beta-lactamase FRET, 24 h. An outline of the steps:
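Rat S16 Schwann cells with beta-Lac driven by a PMP22 intronic element, compound-treated 24 h at 37 °C. LiveBLAzer FRET B/G read: 460 nm normalized to potassium clavulanate vs DMSO; 535 nm FRET as viability; concentration-effect curves classified.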

The nature of assay [9]: A High-Content qHTS Against Drug Library for the Identification of Small Molecules that Inhibit DYT1 Early Onset Primary Dystonia-Associated Cell Pathology (AID 1645839). The following applies: HEK293 Flp-In EGFP-delE TorsinA, punctate imaging, 48 h; measured here: cell count cytotoxicity. In a few lines:
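In this high-content image screen, delE TorsinA mislocalization in inducible Flp-In 293 cells is scored as %pathology, with cell count serving as the counterscreen. Compound exposure lasts 48 h under tetracycline induction in reduced-serum medium.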

The target in assay [10] is Catechol O-methyltransferase (Homo sapiens) (UniProt P21964). Nature of the assay: Confirmatory Screen for Target Class Profiling of Small Molecule Inhibitors of Methyltransferases (AID 1745852).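 Also: inhibitor potency for blocking SAH production.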 The following applies: MTase-Glo luminescence, SAH detection, recombinant enzyme; measured here: COMT inhibition potency.
Chain of UniProt P21964 (P21964 whole entry, looked up): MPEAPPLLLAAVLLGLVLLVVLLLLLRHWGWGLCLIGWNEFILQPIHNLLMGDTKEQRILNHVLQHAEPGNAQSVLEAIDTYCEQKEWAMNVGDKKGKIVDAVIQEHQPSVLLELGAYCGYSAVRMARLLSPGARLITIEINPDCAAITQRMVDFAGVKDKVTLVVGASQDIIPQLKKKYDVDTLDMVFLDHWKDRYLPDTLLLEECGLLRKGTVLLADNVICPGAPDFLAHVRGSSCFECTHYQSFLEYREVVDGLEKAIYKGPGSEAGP
The nature of assay [11]: qHTS assay for small molecule antagonists of retinoid X receptor alpha signaling (AID 588546).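 Also: cells stimulated with 9-cis-retinoic acid as agonist; % is scaled to controls: 0 for no effect and ±100 for the full control effect.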 The settings on record: HEK293T RXRa-UAS-bla, beta-lactamase ratio, antagonist mode; measured here: W530 green channel, cytotoxicity proxy. An outline of the steps:
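Beta-lactamase reporter inhibition, read as CCF4 fluorescence ratio (ex 405, em 460/530 nm) after 2 h at RT. HEK293T UAS-bla cells, 2500/well, were stimulated with 9-cis-RA at 500 or 100 nM final alongside test compound for 18 h at 37 C.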

Assay [12] is described as follows: NCATS anti-infectives library activity on the primary C. elegans qHTS viability assay (AID 1745855). The following applies: C. elegans worm area imaging. An outline of the steps: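 Viability read-out is GFP fluorescence of PE254-GFP-FLuc C. elegans, measured by laser cytometry (488 nm) at day 0, 3 and 7. Ten L1 worms per well were incubated 7 days at 21 °C with compounds and bacterial capsules in S medium.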

A short description of assay [13]: qHTS drug screen for cell cycle checkpoint inhibitors in PARPi-resistant BRCA-mutant ovarian cancer cell lines. (AID 1963452). The following applies: PEO1/OlaR viability, CellTiter-Glo luminescence, 96 h. An outline of the steps: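 PEO1, PEO4 and PEO1/OlaR ovarian cancer cells, 600 per well, exposed 96 h at 37C to a dilution series. Viability read by CellTiter-Glo luminescence, normalized to DMSO and empty wells; activity summarized as Z-AUC.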

Assay [14] is described as follows: qHTS for identification of novel therapeutic agents for treatment of microphthalmiaassociated transcription factor (MiT) renal cell carcinoma (RCC) (AID 1963991). The settings on record: CellTiter-Glo, 48 h; for z-score: stronger effect = lower value. An outline of the steps: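 Curves over 11 concentrations were fitted to CellTiter-Glo luminescence, scaled between empty wells (0%) and DMSO (100%) viability. Cells were UOK109, UOK124 and UOK145 TFE3-fusion RCC lines at 500/well, exposed 48 hours at 37 C.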

Where [15] appears, read: measured here: cell count channel max response.
Where [16] appears, read: measured here: cell number channel AC50.
Setting [17] is: measured here: lipid (BODIPY) channel AC50.
[18] abbreviates: measured here: lipid channel max response.
[19] abbreviates: measured here: red reporter channel AC50, EF-alpha promoter control reporter in MSC80 mouse Schwann cells.
[20] abbreviates: measured here: W460 blue channel fit.
The mark [21] stands for this setting: measured here: W530 green channel, cytotoxicity/artifact.
[22] abbreviates: measured here: 460 nm blue channel.
[23] abbreviates: measured here: 530 nm viability channel.

Where “and” joins values, the source holds several entries; their conditions need not be identical. Equal entries are not always repeated. Some of the results follow. Further columns of the screen follow, without active or inactive calls. For some assays here: Most of these compounds were active or inconclusive in the main read-out, so they are no random draw. For some assays here: The note in brackets gives the kind of curve behind each potency; many fits are weak.
Tags tell the direction and shape of the fitted curve.

Turning to `CC1=CC(=O)C2=C(C)C[C@H](O)[C@H]3[C@H](C)C(=O)O[C@@H]3C12` (stereo partly drawn), the max response came out at 78.5% in [1] (setting [15]) and 95.5% in assay [1] (setting [18]). Besides, the AC50 was 28.2 µM [rising, partial curve, poor fit] in assay [1] (setting [16]) and 14.1 µM [rising, partial curve, poor fit] in assay [1] (setting [17]).

Take `CC(C)C1C(=O)N2CCCC2[C@]2(O)O[C@@](NC(=O)[C@@H]3C=C4c5cccc6[nH]cc(c56)C[C@H]4N(C)C3)(C(C)C)C(=O)N12` (stereo partly drawn): the max response stood at 61% in assay [1] (setting [15]) and 79.6% in assay [1] (setting [18]). Also, the AC50 was 12.6 µM [rising, partial curve] in assay [1] (setting [16]) and 14.1 µM [rising, partial curve] in assay [1] (setting [17]).

Consider `COc1ccc2c(c1)C13CCCCC1C(C2)N(C)CC3` (stereo not drawn), for which the max response in assay [1] (setting [15]) was -30.2%; in assay [1] (setting [18]), -31.9%. In addition, the concentration at half-maximal activity (AC50) in [1] (setting [16]) is 2.82 µM [falling, full curve, poor fit]; in assay [1] (setting [17]) it was 2.82 µM [falling, full curve]; in [2] (setting [19]), 9.53 µM [rising, partial curve, poor fit].

Regarding `C[CH2][Hg][S]c1ccccc1C(=O)O`, the max response in assay [1] (setting [15]) was -67.9%; in assay [1] (setting [18]) it was -103%; in assay [4], -62.2%; in [7] it was -29.7%. In addition, the half-maximal activity concentration (AC50) is 15.8 µM [falling, partial curve] in assay [1] (setting [16]); 7.08 µM [falling, full curve] in assay [1] (setting [17]); 20 µM [falling, full curve, poor fit] in [3] (setting [20]); 28.2 µM [rising, single point] in [3] (setting [21]); 22.4 µM [falling, full curve] in assay [5]; 3.55 µM [falling, full curve] in assay [6]. For the same compound, the AC50 is 5.01 µM [falling, full curve] in assay [8] (setting [22]); 11.2 µM [falling, full curve] in assay [8] (setting [23]); 3.16 µM [falling, single point] in [9].

For the compound `CNCCc1ccc(O)c(O)c1`, the max response in assay [1] (setting [15]) is 46%; in [1] (setting [18]), 49.1%. Further, the AC50 in assay [1] (setting [16]) is 7.94 µM [falling, full curve, poor fit]; in assay [1] (setting [17]) it was 7.94 µM [falling, full curve, poor fit]; in assay [2] (measured here: green reporter channel AC50, mouse Pmp22 promoter in mouse Schwann cells), 75.7 µM [falling, partial curve]; in [2] (setting [19]), 67.5 µM [falling, partial curve]. Besides, the half-inhibitory concentration (IC50) in [10] was 13.7 µM [rising, partial curve].

In the case of `CC(C)(C)NCC(O)c1cc(Cl)c(N)c(Cl)c1` (stereo not drawn), the max response amounted to 43.8% in assay [1] (setting [15]) and 62.4% in [1] (setting [18]). Moreover, the AC50 is 25.1 µM [rising, partial curve, poor fit] in [1] (setting [16]); 39.8 µM [rising, single point] in [1] (setting [17]); 10 µM [falling, partial curve, poor fit] in assay [9].

As to `CN(C)C(=S)SSC(=S)N(C)C`, the max response in [1] (setting [15]) is -39.3%; in assay [1] (setting [18]) it was -78.3%; in assay [4], -0.631%; in assay [7], 57.5% and 24.5%; in [11], 47.2%. Besides, the half-maximal activity concentration (AC50) in assay [1] (setting [16]) was 35.5 µM [falling, single point]; in assay [1] (setting [17]), 31.6 µM [falling, single point]; in [3] (setting [20]) it was 44.7 µM [falling, partial curve, poor fit] and 708 nM [falling, full curve]; in [3] (setting [21]) it was 891 nM [rising, full curve, poor fit] and 22.4 µM [rising, single point]; in assay [5], 31.6 µM [falling, partial curve, poor fit]; in assay [6], 39.8 µM [falling, partial curve, poor fit] and 44.7 µM [falling, partial curve, poor fit]. For the same compound, the AC50 in [8] (setting [22]) was 25.1 µM [falling, partial curve, poor fit]; in assay [8] (setting [23]), 22.4 µM [rising, partial curve]; in assay [9] it was 35.5 µM [falling, single point].

For the compound `O=P(O)(O)C(Cl)(Cl)P(=O)(O)O`, the results for the max response in [1] (setting [15]) and in assay [1] (setting [18]) were 56.6% and 56.9%, respectively. Moreover, the concentration at half-maximal activity (AC50) in [1] (setting [16]) was 39.8 µM [rising, single point]; in [1] (setting [17]) it was 39.8 µM [rising, single point].

For the compound `CN1C[C@@H](C(=O)N[C@@]2(C)O[C@]3(O)C4CCCN4C(=O)[C@@H](Cc4ccccc4)N3C2=O)C=C2c3cccc4[nH]cc(c34)C[C@@H]21` (stereo partly drawn), the max response in assay [1] (setting [15]) turned out to be 60.4%; in assay [1] (setting [18]) it was 78.3%. The AC50 is 31.6 µM [rising, partial curve, poor fit] in [1] (setting [16]) and 31.6 µM [rising, partial curve, poor fit] in [1] (setting [17]).

For `COc1cc2c(cc1OC)-c1c(OC)c(OC)c(C=O)c3c1[C@H](C2)N(C)CC3`, the values for the max response in assay [1] (setting [15]) and in assay [1] (setting [18]) were 84.9% and 43.2%, respectively. For the same compound, the AC50 in assay [1] (setting [16]) is 2.24 µM [rising, full curve]; in assay [1] (setting [17]), 1.58 µM [rising, full curve, poor fit].

As for `CCCCCC[C@H]1C(=O)O[C@H](C)[C@H](NC(=O)c2cccc(NC=O)c2O)C(=O)O[C@@H](C)[C@@H]1OC(=O)CC(C)C`, the max response was 48.6% in assay [1] (setting [15]); -90.4% in [1] (setting [18]); 14.4% in assay [4]; -9.51% in assay [7]; 11.5% in assay [11]. Moreover, the half-maximal activity concentration (AC50) is 0.0562 µM [rising, full curve, poor fit] in assay [1] (setting [16]); 0.126 µM [falling, full curve] in [1] (setting [17]); 15.8 µM [falling, partial curve, poor fit] in assay [3] (setting [20]); 0.01 µM [rising, full curve, poor fit] in assay [3] (setting [21]); 5.62 µM [falling, full curve] in assay [5]; 2.05 µM [falling, full curve] in assay [12] (day 7, measured here: worm number). Moreover, the AC50 in assay [12] (day 7, measured here: worm area, day 3) was 0.205 µM [falling, full curve, poor fit]; in assay [13] (measured here: PEO1 parental viability), 0.219 µM [falling, full curve]; in [13] (measured here: PEO4 viability) it was 0.616 µM [falling, full curve]; in assay [14] (TFE3-RCC viability, measured here: UOK124 cell viability), 16.6 µM [falling, partial curve]; in assay [14] (TFE3-RCC viability, measured here: UOK145 cell viability), 0.0418 µM [falling, partial curve, poor fit]. Besides, the z-score in assay [14] (TFE3-RCC UOK109 viability, measured here: UOK109 Z-AUC) is -0.308; in assay [14] (TFE3-RCC viability, measured here: UOK124 Z-AUC), -0.0808; in assay [14] (TFE3-RCC viability, measured here: UOK145 Z-AUC), -1.21.

For the origin of these results see PubChem BioAssay (NCATS).
